This sample is rich in variants without activity.
B1: TPR 5TU (parent)
chain: GGAUCUUCUCGAUCUAACAAAAAAGACAAAUCUGCCACAAAGCUUGAGAGCAUCUUCGGAUGCAGAGGCGGCAGCCUUCGGUGGCGCGAUAGCGCCAACGUUCUCAACUAUGACACGCAAAACGCGUGCUCCGUUGAAUGGAGUUUAUCAUG

Variants of: B1
Assay: polymerase ribozyme fitness, log enrichment relative to wild type (log ratio); higher = more active; in vitro selection for triplet polymerase activity
Procedure, shortened: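 Each subunit of a heterodimeric triplet polymerase ribozyme was represented by a PCR-built, transcribed mutant library that underwent triplicate single-round in vitro selection with frozen incubation at −7 °C. Extended constructs were recovered by gel excision, streptavidin-bead capture and RT-PCR, and Illumina sequencing of input and output libraries kept genotypes with ≥10 input reads and ≥1 read per output. Fitness is the logarithm of genotype enrichment relative to wild-type enrichment, from inverse-variance-weighted replicate averages, with a logarithm base of 2.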

Row | Variant | polymerase ribozyme fitness (log ratio)
1 | GGAUCUUCUCGAUCUAACAAAAAAGACAAAUCUGCCACAAAGCUUGAGAGCAUCUUCGGAUGCAGAGGCGGCAGCCUUCGGUGGCGAGAUAGCGCUAAGGUUCUCAACUACGACACGCAAAACGAGUGCUCCGUUGAAUGGAGUUUAUCAUG [C87A C96U C99G U111C C125A] | ≤ -4.2
2 | GGAUCUUCUCGAUCUAACAAAAAAGACAAAUCUGCCACAAAGCUUGAGAGCAUCUUCGGAUGCAGAGGCGGCAGCCUUCGGUGGCGAGAUAGGGCCAACGUUCUCAACUAUGAUACGCAAAACGCGUGCUCCGUUGAAUGCAGUUUAUCAUG [C87A C93G C114U G141C] | ≤ -4.2
3 | GGAUCUUCUCGAUCUAACAAAAAAGACAAAUCUGCCACAAAGCUUGAGAGCAUCUUCGGAUGCAGAGGCGGCAGCCUUCGGUGGCGAGAUAGCGCCAACGUUCUCAACUAUGACACGCAAAACGCGUGCUCCCUUGAAUGGAGUCCAUCAUG [C87A G133C U145C U146C] | ≤ -4.2
4 | GGAUCUUCUCGAUCUAACAAAAAAGACAAAUCUGCCACAAAGCUUGAGAGCAUCUUCGGAUGCAGAGGCGGCAGCCUUCGGUGGCGAGAUAGCGCCAACGUUCUCAACUAUGACCCGCAAAACUCGUGCUCCGUUGAAUGGAGUUUAUCAUG [C87A A115C G124U] | ≤ -4.2
5 | GGAUCUUCUCGAUCUAACAAAAAAGACAAAUCUGCCACAAAGCUUGAGAGCAUCUUCGGAUGCAGAGGCGGCAGCCUUCGGUGGCGAGAUAGCGCCAACGUUCUCAACUAUGACAGGCAAUACGCGUGCUCCGUUGAAUGGAGUUUAUCAUG [C87A C116G A121U] | ≤ -4.2
6 | GGAUCUUCUCGAUCUAACAAAAAAGACAAAUCUGCCACAAAGCUUGAGAGCAUCUUCGGAUGCAGAGGCGGCAGCCUUCGGUGGCGAGAUAGCGCCAACGUUCUCAACUAUGACACUCAAAACGCGUGCUCCGUUGAAUGGAGUUUAUCAUG [C87A G117U] | ≤ -4.2
7 | GGAUCUUCUCGAUCUAACAAAAAAGACAAAUCUGCCACAAAGCUUGAGAGCAUCUUCGGAUGCAGAGGCGGCAGCCUUCGGUGGCGAGAUAGCGCCAACGUUCUCAACUAUGACACGCAAAAAGCGUGCUCCGUUGAAUGGAGUUUAUCUUG [C87A C123A A150U] | -3.19
8 | GGAUCUUCUCGAUCUAACAAAAAAGACAAAUCUGCCACAAAGCUUGAGAGCAUCUUCGGAUGCAGAGGCGGCAGCCUUCGGUGGCGAGAUAGCGCCAACGUUCGCAACUAUGACACGCAAAACGGGUGCUCCGUUGAAUGGAGUUUAUCAUG [C87A U104G C125G] | ≤ -4.2
9 | GGAUCUUCUCGAUCUAACAAAAAAGACAAAUCUGCCACAAAGCUUGAGAGCAUCUUCGGAUGCAGAGGCGGCAGCCUUCGGUGGCGAGACAGCGCCAACGUUCUCAACUAUGACACCCAAAACGCGUGCUCCGUUGAAUGGAGUUUAUCAUG [C87A U90C G117C] | -3.77
10 | GGAUCUUCUCGAUCUAACAAAAAAGACAAAUCUGCCACAAAGCUUGAGAGCAUCUUCGGAUGCAGAGGCGGCAGCCUUCGGUGGCGAAAUAGCGCCAACGUUCUCAACUAUGACACGCAAAACGCGUGCUCCGUUGUAUGGAGUUUAUCAUG [C87A G88A A137U] | ≤ -4.2
11 | GGAUCUUCUCGAUCUAACAAAAAAGACAAAUCUGCCACAAAGCUUGAGAGCAUCUUCGGAUGCAGAGGCGGCAGCCUUCGGUGGCGAGAUAGCGCCAACGUUCUCAACUAUGACACGCAAAACGCGUGCUCCGUUGAAUGGAGUUUGUCAUG [C87A A147G] | ≤ -4.2
12 | GGAUCUUCUCGAUCUAACAAAAAAGACAAAUCUGCCACAAAGCUUGAGAGCAUCUUCGGAUGCAGAGGCGGCAGCCUUCGGUGGCGAGAUAGCGCCAACGUUCUCAACUAUGACACGCAAAACGCGUGCUCCGAUGAAUGGAGUUUAUCAUG [C87A U134A] | ≤ -4.2
13 | GGAUCUUCUCGAUCUAACAAAAAAGACAAAUCUGCCACAAAGCUUGAGAGCAUCUUCGGAUGCAGAGGCGGCAGCCUUCGGUGGCGAGAUAGCGCCAACGUUCUCAACUACGACACGCAUAACGCGUGCUCCGUUGAAUUGAGUUUAUCAUG [C87A U111C A120U G140U] | ≤ -4.2
14 | GGAUCUUCUCGAUCUAACAAAAAAGACAAAUCUGCCACAAAGCUUGAGAGCAUCUUCGGAUGCAGAGGCGGCAGCCUUCGGUGGCGAGAUAGUGCCAACGUUCUCAACUAUGACACGCAAAACGCGUGCUCCGUUGAAUGGAGUUUAUCAUA [C87A C93U G152A] | ≤ -4.2
15 | GGAUCUUCUCGAUCUAACAAAAAAGACAAAUCUGCCACAAAGCUUGAGAGCAUCUUCGGAUGCAGAGGCGGCAGCCUUCGGUGGCGAGAUAGCGCCAACGUUCUCAACUAUGACACGCAAAACGCUUGCUCCGUUGAAUGCAGCUUAUCAUG [C87A G126U G141C U144C] | ≤ -4.2
16 | GGAUCUUCUCGAUCUAACAAAAAAGACAAAUCUGCCACAAAGCUUGAGAGCAUCUUCGGAUGCAGAGGCGGCAGCCUUCGGUGGCGAGAUAGCGCCAACGUUCUCAACUAUGACACGCAAAACGCGUCCUCCGUUGAAUGGAGAUUAUCAUG [C87A G128C U144A] | ≤ -4.2
17 | GGAUCUUCUCGAUCUAACAAAAAAGACAAAUCUGCCACAAAGCUUGAGAGCAUCUUCGGAUGCAGAGGCGGCAGCCUUCGGUGGCGAGAUAGCGCGAACGUUCUUAACUAUGACAAGCAAAACGCGUGCUCCGUUGAAUGGAGUUUAUCAUG [C87A C96G C105U C116A] | ≤ -4.2
18 | GGAUCUUCUCGAUCUAACAAAAAAGACAAAUCUGCCACAAAGCUUGAGAGCAUCUUCGGAUGCAGAGGCGGCAGCCUUCGGUGGCGAGAUAGCGCCAACGUUCUCAACUAUGACACGCCAAACGCGUGCUCCGUUGAAUGGAGUUUAUCAAC [C87A A119C U151A G152C] | ≤ -4.2
19 | GGAUCUUCUCGAUCUAACAAAAAAGACAAAUCUGCCACAAAGCUUGAGAGCAUCUUCGGAUGCAGAGGCGGCAGCCUUCGGUGGCGAGAUAGCGCCAACGUUCUCAACUAUGACACGCAAAACUCGUGCUCCGUUGAAUGAAGUUUAGCAUG [C87A G124U G141A U148G] | ≤ -4.2

From the RNAGym collection of RNA variant scans (doi:10.1073/pnas.2313332121)
